PubChem BioAssay (EPA / NIEHS)
Values joined by “and” are separate entries in the source; they are usually repeats but may differ in a detail not shown here. Equal entries are not always repeated. The inconclusive results got no clear call from the source; some entries with a clear call stand among them for comparison. A potency beside an inconclusive call is a rough fit, not a confirmed value. Where a structure was tested more than once in an assay, its records may differ in their call. Active and inactive are the calls of the source. Rule for the calls: active = hit-call score of the fitted dose curve at least 0.9, where 1 is the maximum; inconclusive = response in the unintended direction; inactive = score below 0.9.

What follows are compounds tested on frog Androgen Receptor (AR), gene 399456 (assay: ATG_frAR_XSP2: Attagene TRANS-FACTORIAL Multi-Species (XSP2) HepG2 Assay for frog Androgen Receptor (AR) (AID 2283824);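 note: reporter mRNA from GAL4-UAS units driven by Xenopus AR-Gal4 chimera; actives raise reporter signal above DMSO so AC50 reflects agonist-like induction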).
Procedure: ATG_XSP2_multi-species_TRANS is a cell-based, multiplexed assay created by modifying the existing Attagene TRANS-FACTORIAL system to include a panel of nuclear receptors from some or all the following species: human (Homo sapiens), mouse (Mus musculus), frog (Xenopus laevis), zebrafish (Danio rerio), chicken (Gallus gallus), and turtle (Chrysemys picta). The ECOTOX-FACTORIAL format uses HepG2, a human liver cell line, with measurements taken at 24 hours after chemical dosing in a 24-well plate. Xsp2 included 3 nM 6-alpha-fluorotestosterone and 1.5 nM norgestrel to stimulate the androgen receptor.ATG_frAR_XSP2 is one of 29 assay components measured or calculated from the ATG_XSP2_multi-species_TRANS assay. It is designed to make measurements of mRNA induction, a form of inducible reporter, as detected with fluorescence intensity signals by Reverse transcription polymerase chain reaction (RT-PCR) and Capillary electrophoresis technology.The assay endpoint ATG_frAR_XSP2 was analyzed in the positive analysis fitting direction relative to DMSO as the negative control and baseline of activity. Using a type of inducible reporter, measures of mRNA for gain-of-signal activity can be used to understand the reporter gene at the transcription factor-level as they relate to the gene AR. Furthermore, this assay endpoint can be referred to as a primary readout, because this assay has produced multiple assay endpoints where this one serves a reporter gene function. To generalize the intended target to other relatable targets, this assay endpoint is annotated to the nuclear receptor intended target family, where the subfamily is steroidal.
Human liver HepG2 cells are transiently transfected with multiple reporter transcription units (MRTUs) in 6-well plates using FuGene 6 reagent (Roche; 3 ml FuGene/1 mg DNA). The MRTU constructs are regulated by a cis-regulating element (promoter). […] A major difference between the CIS and TRANS system is that in CIS activities of endogenous TFs are measured, whereas the TRANS assay evaluates changes in activities of exogenous, chimeric NR-Gal4 proteins. […] At the end of 24 hour incubation, total RNA was isolated using TriZol reagent (Invitrogen). The isolated RNA is then reverse-transcribed using oligo(dT) primer and Mo-MLV reverse transcriptase (Invitrogen) with DNAse I (Ambion) treatment for 30 min. The one-tenth of the produced cDNA was amplified by PCR using Taq DNA polymerase (Invitrogen) and two reporter sequence-specific primers. The PCR products were fluorescently labeled by primer extension with 6-arboxyfluorescein (6-FAM) 5'-labeled reporter sequence-specific primer (2 min at 95 C, 20 s at 68 C and 10 min at 72 C) and these products were digested with 5U of HpaI (New England Biolabs) for 2h at 37 C. The fragments were purified using Qiaquick PCR columns (Qiagen), analyzed on an ABI 3130xL genetic analyzer (Applied Biosystems) with peak positions identified by using a set of X-rhodamine (ROX)-labeled MapMarker1000 molecular weight standards (BioVentures). The raw capillary electrophoresis data was processed using Attagraph software (Attagene).

Structure (SMILES) | AC50 | outcome
O=S(=O)(c1ccc(O)cc1)c1ccc(O)cc1 | active: 8.07 µM | inactive
[Cl][Sn]([c]1ccccc1)([c]1ccccc1)[c]1ccccc1 | inconclusive: 0.548 µM | 
Clc1ccc(C(c2ccccc2Cl)C(Cl)(Cl)Cl)cc1 (stereo not given) | inconclusive: 10 µM | 
CC(C)(C)c1ccc(CSc2cnn(C(C)(C)C)c(=O)c2Cl)cc1 |  | inactive
CC1(C)CCC(=Cc2ccc(Cl)cc2)C1(O)Cn1cncn1 (stereo not given) | inconclusive: 9.7 µM | 
C#CCOS(=O)OC1CCCCC1Oc1ccc(C(C)(C)C)cc1 (stereo not given) | inconclusive: 100 µM | 
CC12CC1(C)C(=O)N(c1cc(Cl)cc(Cl)c1)C2=O (stereo not given) | inconclusive: 4.57 µM and inconclusive: 7.86 µM | 
CCCCOC(=O)c1ccccc1C(=O)OCCCC | inconclusive: 153 µM | 
CC(C)(C)C(O)(CCc1ccc(Cl)cc1)Cn1cncn1 (stereo not given) | inconclusive: 25.1 µM and inconclusive: 14.3 µM | 
CCOCN(C(=O)CCl)c1c(C)cccc1CC | inconclusive: 183 µM | 
COP(=S)(OC)Oc1nc(Cl)c(Cl)cc1Cl | active: 29.7 µM | 
CCCN(CCC)c1c([N+](=O)[O-])cc(S(N)(=O)=O)cc1[N+](=O)[O-] | inconclusive: 47.1 µM | 
CCC(CC)Nc1c([N+](=O)[O-])cc(C)c(C)c1[N+](=O)[O-] | inconclusive: 7.32 µM and inconclusive: 3.02 µM | 
CC(C)(C)c1cc(O)ccc1O |  | inactive
C=C(C)CN(CC)c1c([N+](=O)[O-])cc(C(F)(F)F)cc1[N+](=O)[O-] | inconclusive: 27.8 µM and inconclusive: 23.7 µM | 
Cc1cc(-c2ccc(N)c(C)c2)ccc1N | inconclusive: 8.7 µM and inconclusive: 54.8 µM and inconclusive: 12.6 µM | 
COP(=O)(OC)O/C(=C\Cl)c1cc(Cl)c(Cl)cc1Cl | inconclusive: 7.79 µM | 
CC(C)CCCCCCCOC(=O)c1ccccc1C(=O)OCCCCCCCC(C)C | inconclusive: 100 µM | 
C[C@]12CCC(=O)C[C@@H]1CC[C@@H]1[C@@H]2CC[C@]2(C)[C@@H](O)CC[C@@H]12 | active: 0.0457 µM | 

Structure (SMILES) | AC50 | outcome
c1ccc2c(c1)-c1cccc3cccc-2c13 | inconclusive: 32.4 µM and inconclusive: 9.38 µM | 
COP(=S)(OC)Oc1ccc([N+](=O)[O-])cc1 | inconclusive: 100 µM and inconclusive: 37.7 µM | 
CC(c1ccc(O)cc1)(c1ccc(O)cc1)c1ccc(O)cc1 | active: 0.267 µM | inactive
CC(O)(CS(=O)(=O)c1ccc(F)cc1)C(=O)Nc1ccc(C#N)c(C(F)(F)F)c1 (stereo not given) | inconclusive: 261 nM and inconclusive: 88.5 nM | 
CC(C)NC(=O)N1CC(=O)N(c2cc(Cl)cc(Cl)c2)C1=O | inconclusive: 100 µM | 
COCCl | inconclusive: 63.5 µM and inconclusive: 34.8 µM | 
C=CC1(C)OC(=O)N(c2cc(Cl)cc(Cl)c2)C1=O (stereo not given) | inconclusive: 3.98 µM | 
CCC(=O)O[C@H]1CC[C@H]2[C@@H]3CCC4=CC(=O)CC[C@]4(C)[C@H]3CC[C@]12C | inconclusive: 100 nM and inconclusive: 180 nM | 
CCCN(CCC)c1c([N+](=O)[O-])cc(C(F)(F)F)cc1[N+](=O)[O-] | inconclusive: 65.6 µM | 
Oc1ccc(Cl)cc1Cc1ccccc1 | inconclusive: 4.08 µM | 
Clc1ccc(C2(Cn3cncn3)CC(Br)CO2)c(Cl)c1 (stereo not given) | inconclusive: 7.49 µM and inconclusive: 7.78 µM | 
C[C@]12CCC(=O)C=C1CC[C@@H]1[C@@H]2CC[C@]2(C)C(=O)CC[C@@H]12 | inconclusive: 195 nM and inconclusive: 26.6 nM | 
COc1ccc(C(=CC(=O)N2CCOCC2)c2ccc(Cl)cc2)cc1OC | inconclusive: 24.1 µM and inconclusive: 10.9 µM | 
CO/C=C(/C(=O)OC)c1ccccc1Oc1cc(Oc2ccccc2C#N)ncn1 | inconclusive: 1 µM | 
C[C@]12CCC(=O)C=C1CC[C@@H]1[C@@H]2CC[C@@]2(C)[C@H]1CC[C@]2(C)O | active: 0.00739 µM | 
CC(C)Oc1cc(-n2nc(C(C)(C)C)oc2=O)c(Cl)cc1Cl |  | inactive
CC(=O)C=C(C)C | inconclusive: 183 µM and inconclusive: 170 µM | 
Oc1cc(Cl)ccc1Oc1ccc(Cl)cc1Cl | inconclusive: 3.06 µM | 
COP(=S)(OC)Oc1ccc([N+](=O)[O-])c(C)c1 | inconclusive: 52.3 µM | 
